According to PubChem BioAssay AID485344 (National Center for Advancing Translational Sciences (NCATS), 2010):
Among all 340,000 compounds or so, about 6,900 (2%) were called active. No stated cut-off is given here; in the data, active means inhibition above about 30%; inactive means below that, where a call was filed. Only a part is listed here, and it is no random draw. Entries without a call were filed so in the source.

These compounds were tested against D(2) dopamine receptor (Homo sapiens) (UniProt P14416) (assay: HTS Assay for Allosteric Antagonists of the Human D2 Dopamine Receptor: Primary Screen for Antagonists). Settings: HEK293 TREx D2 cells, calcium flux, dopamine EC80; at 10 µM; stronger effect = higher value.
Method in brief: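 Calcium flux kinetic readout in an inducible HEK293 TREx D2 line plated overnight at 30 C. After 180 s compound exposure, an EC80 dopamine challenge follows with another 180 s kinetic read to detect antagonism.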
Further: 0% is about no effect.

UniProt P14416, sequence (P14416 whole entry, looked up): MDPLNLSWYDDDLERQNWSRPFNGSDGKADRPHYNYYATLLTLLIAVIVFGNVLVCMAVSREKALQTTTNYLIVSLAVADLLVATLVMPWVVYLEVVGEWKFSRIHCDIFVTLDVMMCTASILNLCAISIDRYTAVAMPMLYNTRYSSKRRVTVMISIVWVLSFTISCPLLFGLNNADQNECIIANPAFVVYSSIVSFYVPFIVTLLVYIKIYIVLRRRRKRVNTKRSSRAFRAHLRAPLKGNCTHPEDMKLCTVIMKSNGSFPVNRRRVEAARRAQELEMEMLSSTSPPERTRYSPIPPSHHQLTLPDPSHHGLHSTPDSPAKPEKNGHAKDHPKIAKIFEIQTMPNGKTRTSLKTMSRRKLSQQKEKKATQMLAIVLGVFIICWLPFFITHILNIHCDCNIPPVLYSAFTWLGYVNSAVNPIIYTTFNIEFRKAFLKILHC

Compared with `COc1cccc(OC)c1C(=O)Nc1ccc2c(c1)N(C(C)=O)CCC2`, `CCOC(=O)c1cc(-c2ccc(C)cc2)n(CCC(=O)Nc2ccc(OC)c(OC)c2)c1C` is lower in inhibition: 9.98% for the first, -6.9% for the second.

Going from `CCOc1ccc(CNS(=O)(=O)c2cc(-c3cc(C)no3)ccc2C)cc1OC` to `COc1ccc(-c2cnc(C)o2)cc1S(=O)(=O)Nc1ccc(C)c(N(C)C)c1`, the inhibition rises from -4.23% to 6.06%.

Compared with `O=C1CC(c2ccc(Cl)cc2)Sc2nc(-c3ccc(F)cc3)nn21` (centres undefined), `COc1ccc(-c2nc3n(n2)C(=O)CC(c2ccc(Cl)cc2)S3)cc1` (centres undefined) is higher in inhibition: -3.1% for the first, 0.995% for the second.

First: COc1ccc2c(c1)c1c(c(=O)n(-c3ccccc3C)c(=O)n1CC(=O)Nc1c(C)cccc1C)n2C
Second: CCn1c2ccccc2c2cc(NC(=O)COc3ccc(C)c(C)c3)ccc21
The inhibition of the first is higher: 6.81% for the first, -12.1% for the second.

Compared with `O=c1c2[nH]c3ccccc3c2nc(SCc2cccc(F)c2)n1-c1ccccc1`, `Cc1cccc(NC(=O)CCn2nc(-c3ccccc3)c3ccccc3c2=O)c1` is lower in inhibition: 6.65% for the first, -12.5% for the second.

Compared with `O=C(O)CCc1ccc(-c2ccccc2)n1CC(=O)Nc1ccccc1C(F)(F)F`, `CCOc1ccc(NC(=O)Cn2c(=O)n(CCC(=O)NCCc3ccccc3)c(=O)c3ccccc32)cc1` is lower in inhibition: -0.0853% for the first, -2.7% for the second.

Compared with `COc1ccccc1CNC(=O)CCCCn1c(=O)c2ccccc2n(CC(=O)Nc2cc(Cl)ccc2C)c1=O`, `COc1ccccc1CNC(=O)c1cnn2c(C)c(Cc3ccc(F)cc3)c(C)nc12` is lower in inhibition: 11.9% for the first, -26.3% for the second.

First: COC(=O)c1ccc(NC(=O)C2CCN(C(=O)c3ccc(F)cc3)CC2)cc1
Second: CCOC(=O)c1ccc(NC(=O)CN2C(=O)COc3ccc(Cl)cc32)cc1
The inhibition of the first is lower: -12.8% for the first, 12.3% for the second.

Compared with `CCS(=O)(=O)CCSc1nc(-c2ccc(Br)cc2)cc(-c2ccccc2)c1C#N`, `Cc1cccc(-c2nc(SCC(=O)Nc3ccc4c(c3)OCO4)c(-c3ccccc3)[nH]2)c1` is higher in inhibition: 9.27% for the first, 10.4% for the second.

Going from `CCOc1cc(C(=O)Nc2ccc(-c3nc4ncccc4o3)cc2C)cc(OCC)c1OCC` to `Cc1ccc(-c2nc3cc(Cl)ccc3o2)cc1NC(=O)COc1ccc(F)cc1`, the inhibition falls from -14.4% to -20.2%.

Going from `N#Cc1cccc(NC(=O)C2CCN(c3ncccn3)CC2)c1` to `O=C(CCn1c(=O)c2cccn2c2cccnc21)N1CCN(c2cccc(Cl)c2)CC1`, the inhibition falls from -7.9% to -8.56%.

Going from `CC1=C(C(=O)Nc2ccccc2C)C(c2cccnc2)n2nc(SCc3ccccc3F)nc2N1` (centres undefined) to `COc1ccc(N2CCN(C(=O)c3oc4ccccc4c3NC(=O)c3ccccc3OC)CC2)cc1`, the inhibition falls from 17.2% to -13.8%.

Going from `COC(=O)c1c(NC(=O)COc2cc(C)ccc2C(C)C)sc2c1CCC(C)C2` (centres undefined) to `Cc1ccc2nc3c(cc(C(=O)NC4CCCCC4)c(=N)n3C(C)C)c(=O)n2c1`, the inhibition rises from -2.16% to -0.407%.

Going from `Cc1cc(C)c(S(=O)(=O)n2cnc(C)c2)c(C)c1` to `Cc1ccc(Cl)cc1N1CCN(S(=O)(=O)c2cc3[nH]c(=O)c(=O)[nH]c3cc2C)CC1`, the inhibition falls from -1.2% to -16%.

Compared with `CC(=O)c1ccc(N2CCN(S(=O)(=O)c3ccc(-c4cc(C)no4)s3)CC2)cc1`, `Cc1c(C(=O)N2CCC(C)CC2)c(S(=O)(=O)N2CCN(c3ccc(Cl)cc3)CC2)c(C)n1C` is lower in inhibition: 1.55% for the first, -11.5% for the second.

First: Cc1ccc(-c2ccc(=O)n(CC(=O)NCc3ccc(F)cc3)n2)cc1
Second: Cn1nccc1C(=O)NCc1ccc2c(c1)CCN2C(=O)c1ccccc1
The inhibition of the first is lower: -17.4% for the first, 12.1% for the second.

Going from `CCC(C)NC(=O)C1CCC(CNS(=O)(=O)c2ccc(Cl)cc2)CC1` (centres undefined) to `O=C(Cn1c(=O)oc2cc(S(=O)(=O)NC3CCCC3)ccc21)Nc1ccc(F)c(F)c1`, the inhibition rises from -4.99% to -1.85%.

First: CCOC(=O)c1ccc(NC(=O)CC2NCCNC2=O)cc1 (centres undefined)
Second: CCOc1ccccc1NC(=O)Cn1nnc(C(=O)Nc2ccc(C)c(C)c2)c1N
The inhibition of the first is lower: -0.559% for the first, 7.33% for the second.

Going from `CCOC(=O)C1CCN(S(=O)(=O)c2ccc3c(c2)NC(=O)C(C)C(=O)N3)CC1` (centres undefined) to `CC1CCCN(CCCNC(=O)CN2C(=O)CSc3ccc(S(=O)(=O)N4CCOCC4)cc32)C1` (centres undefined), the inhibition falls from 23.1% to 11.2%.

Going from `COCCCNC(=O)Cn1cnc2sc(C)c(S(=O)(=O)N3CCN(c4ccccc4OC)CC3)c2c1=O` to `COc1cccc(C2CC(=O)Nc3c2c(=O)nc2c(C)cccn32)c1OC` (centres undefined), the inhibition falls from 7.35% to 3.86%.

First: CCN1CCN(C(=O)c2ccc3c(c2)N(Cc2cccc(F)c2)C(=O)c2ccccc2S3)CC1
Second: Cc1ccc(C(c2sc3nc(-c4ccco4)nn3c2O)N2CCN(Cc3ccccc3)CC2)cc1 (centres undefined)
The inhibition of the first is higher: -11.7% for the first, -21.5% for the second.

First: CCCCCN1C(C(=O)c2ccccc2)=C(NC(=O)c2ccccc2Cl)c2ccccc2S1(=O)=O
Second: Cc1cccc(N2CCN(C3(c4ccccc4)C(=O)c4ccccc4C3=O)CC2C)c1 (centres undefined)
The inhibition of the first is lower: -9.66% for the first, 13.9% for the second.

First: COc1ccc(CCNC(=O)c2ccc3c(c2)N(Cc2ccc(Cl)cc2)CCS3)c(OC)c1
Second: COc1ccc(-c2nc3sc(CCNC(=O)C(=O)Nc4c(C)cccc4C)c(C)n3n2)cc1
The inhibition of the first is lower: 2.96% for the first, 6.28% for the second.

First: CN1C(=O)Cc2cc(S(=O)(=O)NCCc3ccccc3)ccc21
Second: COc1ccc(NC(=O)C2CCCN2S(=O)(=O)c2ccc3nc(-c4ccccc4)[nH]c3c2)cc1 (centres undefined)
The inhibition of the first is lower: 2.96% for the first, 15.4% for the second.

First: Cc1ccc(Cl)cc1N1CCN(C(=O)C2CCN(Cc3nc(-c4ccc(Cl)cc4)oc3C)CC2)CC1
Second: CC(C)(C)OC(=O)N1CCC(c2c(C(=O)NC3CCCCC3)cnn2-c2cccc(Cl)c2)CC1
The inhibition of the first is higher: 5.38% for the first, 2.56% for the second.

`CC1=C(C(=O)OC2CCCC2)C(c2ccccc2Cl)CC(=O)N1` (centres undefined) was tested, and the inhibition was 1.95%.

For `CSc1cccc(CN2CCN(Cc3ccccc3)C(CCO)C2)c1` (centres undefined), the inhibition was active: 38.9%.
In the case of `O=C(CSc1nc2c(cnn2-c2cccc(Cl)c2)c(=O)[nH]1)NCC1CCCO1` (centres undefined), the inhibition is reported as active: 38.7%.
For `c1ccc2c(c1)nnn2-c1ncnc2sc3c(c12)CCCC3`, the inhibition was active: 30.8%.
`O=C(CCCc1ccccc1)Nc1ccnn1C1CCN(Cc2ccc(Cl)cc2)CC1` was tested, and the inhibition was active: 35.4%.
`O=S(=O)(c1ccc2nc(COc3ccc(Cl)cc3Cl)[nH]c2c1)N1CCOCC1` was tested, and the inhibition was active: 38.3%.
In the case of `CCN(CC)CCNC(=O)C1c2cc(OC)c(OC)cc2C(=O)N(C)C1c1cccs1` (centres undefined), the inhibition is reported as active: 35.1%.
In the case of `CC(C)CCSc1nc2c(c(=O)[nH]c(=O)n2C)n1CCCc1ccccc1`, the inhibition is reported as active: 35.3%.
For `O=C(CCN1CCN(c2ccccn2)CC1)Nc1ccc(F)cc1`, the inhibition was active: 67.4%.
